# Measured values: PubChem BioAssay AID720709 (National Center for Advancing Translational Sciences (NCATS), 2013)
# In all, about 360,000 compounds went through this assay and about 520 (0.14%) were called active. Inconclusive means that the source gave no clear call. Such entries were picked first, then a sample of the others. The call rests on the fitted dose curve; in most records, active means well fitted inhibition curve with a large enough effect; inconclusive means small, poorly fitted or top-dose-only effect; inactive means no such curve, though single readings can be large or run the other way. Potencies of inconclusive entries are left out as doubtful fits.
# Biological target: Rap guanine nucleotide exchange factor 3 (Homo sapiens) (UniProt O95398)
# Test: qHTS for Antagonist of cAMP-regulated guanine nucleotide exchange factor 3 (EPAC1): primary screen; further: nearly all actives have a fitted effect of over 50% in size
# Conditions: EPAC1 GEF assay, Rap1b-BODIPY-GDP exchange fluorescence; series mostly up to 115 µM
# Potency means the concentration at half of the fitted maximal effect; tags describe the fitted curve by direction and shape.
# UniProt O95398, sequence (O95398 whole entry, looked up): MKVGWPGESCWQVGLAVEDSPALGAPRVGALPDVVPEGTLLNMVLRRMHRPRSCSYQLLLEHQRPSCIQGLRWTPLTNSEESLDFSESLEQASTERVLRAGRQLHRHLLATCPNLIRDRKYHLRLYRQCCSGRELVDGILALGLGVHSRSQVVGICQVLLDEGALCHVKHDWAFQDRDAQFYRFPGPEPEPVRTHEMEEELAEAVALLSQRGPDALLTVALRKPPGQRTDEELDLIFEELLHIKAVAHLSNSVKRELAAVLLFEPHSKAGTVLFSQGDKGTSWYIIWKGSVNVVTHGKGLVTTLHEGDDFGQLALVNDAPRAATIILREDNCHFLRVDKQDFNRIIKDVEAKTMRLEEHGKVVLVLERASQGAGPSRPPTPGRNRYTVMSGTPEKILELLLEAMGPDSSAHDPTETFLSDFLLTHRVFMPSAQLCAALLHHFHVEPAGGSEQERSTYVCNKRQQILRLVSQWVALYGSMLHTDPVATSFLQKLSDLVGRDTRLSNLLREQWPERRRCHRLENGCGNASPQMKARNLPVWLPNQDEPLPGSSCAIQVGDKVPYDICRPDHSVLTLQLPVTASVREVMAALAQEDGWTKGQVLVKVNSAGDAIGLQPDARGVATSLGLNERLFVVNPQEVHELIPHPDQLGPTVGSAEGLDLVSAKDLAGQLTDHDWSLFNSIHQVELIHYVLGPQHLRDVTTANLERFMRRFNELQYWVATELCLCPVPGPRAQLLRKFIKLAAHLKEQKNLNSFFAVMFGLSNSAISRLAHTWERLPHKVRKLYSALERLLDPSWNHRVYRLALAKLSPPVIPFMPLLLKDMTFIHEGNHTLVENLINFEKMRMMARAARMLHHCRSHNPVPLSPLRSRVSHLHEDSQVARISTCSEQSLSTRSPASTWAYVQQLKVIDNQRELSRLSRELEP
row,Compound,Potency
1,CN(CC(=O)Nc1ccccc1Br)CC(=O)Nc1ccccc1-c1ccccc1,"inconclusive [inhibitor, single point]"
2,CCOc1cc2c3c(c1)C1(C(=O)N3C(C)(C)C=C2C)C(C#N)=C(N)Oc2cc(O)ccc21 (stereo unspecified),"inconclusive [inhibitor, full curve]"
3,Cc1onc(C(=O)N2CCN(C(c3ccccc3)c3ccccc3)CC2)c1[N+](=O)[O-],"inconclusive [inhibitor, single point]"
4,CC(=O)N1CCN(S(=O)(=O)c2cccc(C(=O)NC3CC3)c2)CC1,"inconclusive [inhibitor, partial curve]"
5,COc1ccc2cc(CN(CC3CCCO3)C(=S)Nc3ccccc3)c(=O)[nH]c2c1 (stereo unspecified),"inconclusive [inhibitor, full curve, poor fit]"
6,Cc1oc(C(C)(C)C)cc1C(N)=O,"inconclusive [inhibitor, partial curve]"
7,O=C(CSc1nc2ccsc2c(=O)n1CC1CCC(C(=O)O)CC1)c1ccc(F)cc1 (stereo unspecified),inactive
8,CC(C)(C)c1cc(CN2CCCC(O)C2)c(O)c(C(C)(C)C)c1 (stereo unspecified),"inconclusive [inhibitor, partial curve]"
9,Oc1ccccc1CNc1ccc(Br)cn1,inactive
10,CC(C)C[C@@H](CO)N1CCN(Cc2cccc(C#N)c2)CCC1=O,"inconclusive [inhibitor, single point]"
11,Cn1nc(C2CC2)cc1NC(=O)C1(C)CCN1C(=O)c1ccccc1CCc1ccccc1 (stereo unspecified),inactive
12,O=c1c2ccccc2sn1-c1ccc(F)cc1,"inconclusive [inhibitor, full curve, poor fit]"
13,COc1ccccc1OCCCOc1cccc(/C=C2\SC(=O)NC2=O)c1,"inconclusive [inhibitor, single point]"
14,Cc1ccc(NC(=O)CSCC(=O)Nc2ccccc2N2CCCCC2)cc1,"inconclusive [inhibitor, partial curve, poor fit]"
15,O=C(c1ccc2c3n(nc2c1)-c1ccc(Cl)cc1CO3)N1CCCCC1,"inconclusive [inhibitor, partial curve]"
16,N/C(=N\OC(=O)Cc1ccccc1[N+](=O)[O-])c1ccc(Br)cc1,"inconclusive [inhibitor, single point]"
17,COc1cccc(-c2ccc3ncnc(N(C)Cc4ccco4)c3c2)c1,inactive
18,CCOC(=O)c1c(C)[nH]c(C(=O)Nc2ccc(NC(C)=O)cc2)c1C,"inconclusive [inhibitor, full curve, poor fit]"
19,O=C(O)c1cc([N+](=O)[O-])ccc1NCc1ccccc1,"inconclusive [inhibitor, partial curve]"
20,Cc1cc(C=O)c(C)n1-c1cccc(C(=O)O)c1,inactive
21,CCc1ccc(NC(=O)CCCN2C(=S)NC(C)(C)CC2C)cc1 (stereo unspecified),"inconclusive [inhibitor, partial curve, poor fit]"
22,C=CC(=C)CC(NC)c1ccccc1 (stereo unspecified),"inconclusive [inhibitor, single point]"

row,Compound,Potency
1,Cc1nnc(SCC(=O)Nc2nsc(-c3ccc(C(C)(C)C)cc3)n2)s1,"inconclusive [inhibitor, partial curve]"
2,O=[N+]([O-])c1cccc(SSc2cccc([N+](=O)[O-])c2)c1,inactive
3,Cc1ccc(C(=O)NCC(=O)NCc2ccccc2F)s1,"inconclusive [inhibitor, single point]"
4,O=C1N/C(=N\S(=O)(=O)Cc2ccccc2)S/C1=C/c1cc([N+](=O)[O-])ccc1O,"inconclusive [inhibitor, single point]"
5,OC(COC(c1ccc(F)cc1)c1ccc(F)cc1)CN1CCCC1 (stereo unspecified),"inconclusive [inhibitor, partial curve]"
6,CC1Cc2nc(SCC(=O)Nc3ccc4c(c3)OCO4)n(Cc3ccccc3)c(=O)c2S1 (stereo unspecified),inactive
7,O=C(CCCCCl)Nc1c2c(nc3ccccc13)CCC2,"inconclusive [inhibitor, partial curve, poor fit]"
8,Cc1cc(C(=O)N/N=C/c2cccn2C)no1,"inconclusive [inhibitor, full curve, poor fit]"
9,COc1cccc(CN2CCNC(=O)C2CC(=O)O)c1OC (stereo unspecified),"inconclusive [inhibitor, full curve, poor fit]"
10,COc1ccc2[nH]c(=O)c(-c3nnn(-c4ccc(Cl)nc4)n3)cc2c1,"inconclusive [inhibitor, single point]"
11,Cc1ccc(/C([O-])=C(/C(=S)NCc2ccco2)[n+]2ccccc2)cc1[N+](=O)[O-],"inconclusive [inhibitor, partial curve]"
12,O=C(OCC(O)C(O)C(O)C(SCc1ccccc1)SCc1ccccc1)c1ccccc1 (stereo unspecified),"inconclusive [inhibitor, single point]"
13,Cc1cc[n+](-c2[nH]c(=O)sc2/C=N/N=C(\[O-])c2ccccc2)cc1,"inconclusive [inhibitor, single point]"
14,CCC1CCCCN1C(=O)CSc1nnc(-c2c[nH]c3ccccc23)o1 (stereo unspecified),"inconclusive [inhibitor, partial curve]"
15,Cc1cc(C(=O)OCC(=O)Nc2cccc(S(N)(=O)=O)c2)c2ccccc2n1,"inconclusive [inhibitor, single point]"
16,COC(=O)C1=CO[C@@H](O[C@@H]2O[C@H](CO)[C@@H](O)[C@H](O)[C@H]2O)C2C1C=C[C@@]2(O)CO (stereo partly specified),inactive
17,COc1cc(/C=C2/C(=O)NN(c3ccc(Cl)c(Cl)c3)C2=O)cc([N+](=O)[O-])c1O,"inconclusive [inhibitor, partial curve]"
18,O=C(CSc1nc(-c2ccccc2)nc2ccc(F)cc12)Nc1cccc(C(=O)O)c1,inactive
19,O=C1NC(=S)S/C1=C\c1ccc(SCc2ccco2)o1,"inconclusive [inhibitor, partial curve]"
20,Cc1c(N=C2C=CC(=O)c3ccccc32)c(=O)n(-c2ccccc2)n1C,"inconclusive [inhibitor, partial curve, poor fit]"
21,Cc1ccc([N+](=O)[O-])cc1S(=O)(=O)Nc1ccc(O)c(Sc2ncn[nH]2)c1,inactive
22,O=C(CN1C(=O)NC2(CCCC2)C1=O)Nc1nc2c(F)cc(F)cc2s1,"inconclusive [inhibitor, single point]"

row,Compound,Potency
1,CCN(CC)C(=O)CC(c1ccccc1)c1ccco1 (stereo unspecified),inactive
2,O=C(Nc1cccc(Oc2ccccc2)c1)c1ccc(-n2cncn2)c2ccoc12,inactive
3,Cc1ccc(N2CCN(S(=O)(=O)N3CCCCC3)CC2)c(C)c1,"inconclusive [inhibitor, full curve, poor fit]"
4,COC(=O)c1ccc(C2NCCc3cc(OC)c(OC)cc32)cc1 (stereo unspecified),"inconclusive [inhibitor, full curve, poor fit]"
5,FC(F)(F)c1nnc2ccc(NCc3ccccc3)nn12,"inconclusive [inhibitor, single point]"
6,O=C(c1ccco1)N1CCN(S(=O)(=O)c2ccc(Cl)cc2)CC1,"inconclusive [inhibitor, partial curve, poor fit]"
7,O=C(c1cc2ccccc2oc1=O)N(Cc1cccs1)Cc1ccccc1Cl,"inconclusive [inhibitor, partial curve, poor fit]"
8,O=C1CN(C(=O)COC(=O)CNC(=O)c2ccc(Cl)cc2)c2ccccc2N1,"inconclusive [inhibitor, single point]"
9,Nc1c(C(=O)Nc2ccc3c(c2)OCCO3)nnn1Cc1ccc(F)cc1,inactive
10,O=C(OCn1ncc(Br)c(Br)c1=O)c1ccc(F)cc1,"inconclusive [inhibitor, single point]"
11,Oc1[nH]c(=S)sc1/C=C1\C(c2ccccc2)=Nc2ccccc21,"inconclusive [inhibitor, single point]"
12,CC1(C)CC[C@]2(C(=O)O)CC[C@]3(C)C(=CCC4[C@@]5(C)CC[C@H](O)C(C)(C)C5[C@H](O)C[C@]43C)[C@@H]2C1 (stereo partly specified),"inconclusive [inhibitor, single point]"
13,O=C(c1cc(C2CC2)on1)N1CCN(c2ccccc2)CC1,inactive
14,CCN(Cc1ccccc1)S(=O)(=O)c1ccc2oc(C(=O)O)c(C)c2c1,"inconclusive [inhibitor, full curve, poor fit]"
15,CCOc1cc(/C=N/NC(=O)c2cc(-c3cccnc3)nc3ccccc23)ccc1O,"inconclusive [inhibitor, single point]"
16,CC(=O)N/N=C(\C)CC(=O)NC(C)(C)C,"inconclusive [inhibitor, single point]"
17,CCOc1cc(/C=N/Nc2ccc(C(=O)O)cc2)ccc1OC(=O)c1ccccc1C,"inconclusive [inhibitor, single point]"
18,CC12CC(NC(=O)N1c1cccc(C(=O)N3CCN(c4ccccc4)CC3)c1)c1ccccc1O2 (stereo unspecified),inactive
19,CN1CCN(CCCN2c3ccccc3Sc3ccc(Cl)cc32)CC1,inactive
20,Cc1nc(N)sc1C(=O)N1N=N1,"inconclusive [inhibitor, single point]"
21,CSc1ccc(CN2CCC(C(=O)NCc3ccc(C)cc3)CC2)cc1,inactive
22,NC(=O)c1ccc(NC(=O)COC(=O)/C=C/c2ccc(Br)o2)cc1,inactive
